# This is one part of the list.
# B1: Gal 2 (Homo sapiens), P05162 (protein)
# chain: MTGELEVKNMDMKPGSTLKITGSIADGTDGFVINLGQGTDKLNLHFNPRFSESTIVCNSLDGSNWGQEQREDHLCFSPGSEVKFTVTFESDKFKVKLPDGHELTFPNRLGHSHLSYLSVRGGFNMSSFKLKE
# Legend:
# Experiment in all cases: glycan array binding signal (z-score within array); higher = stronger binding
# Conditions in all cases: glycan notation: IUPAC condensed, linker removed
# Man(b1-4)GlcNAc = molecular target: Man(b1-4)GlcNAc
# In short: (§1)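 Negative Z-scores can be read as non-binding. The Z-score is calculated within each array and then averaged across arrays of one protein sequence at different concentrations or buffers and across linkers. Arrays, 3228 in all, were curated from the Consortium for Functional Glycomics database and kept only where the protein sequence was available.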
# MurNAc(b1-4)GlcNAc = molecular target: MurNAc(b1-4)GlcNAc
# In short: as §1
# Neu5Ac(a2-3)Gal = molecular target: Neu5Ac(a2-3)Gal
# In short: as §1
# [1] = molecular target: Neu5Ac(a2-3)Gal(b1-3)GalNAc
# In short: as §1
# [2] = molecular target: Neu5Ac(a2-3)Gal(b1-3)GalNAc(b1-3)Gal(a1-4)Gal(b1-4)Glc
# In short: as §1
# [3] = molecular target: Neu5Ac(a2-3)Gal(b1-3)GalNAc(b1-3)Gal(b1-4)GlcNAc
# In short: as §1
# [4] = molecular target: Neu5Ac(a2-3)Gal(b1-3)GalNAc(b1-4)[Neu5Ac(a2-3)]Gal(b1-4)Glc
# In short: as §1
# [5] = molecular target: Neu5Ac(a2-3)Gal(b1-3)GalNAc(b1-4)[Neu5Ac(a2-8)Neu5Ac(a2-3)]Gal(b1-4)Glc
# In short: as §1
# [6] = molecular target: Neu5Ac(a2-3)Gal(b1-3)GalNAc6S
# In short: as §1
# [7] = molecular target: Neu5Ac(a2-3)Gal(b1-3)GlcNAc
# In short: as §1
# [8] = molecular target: Neu5Ac(a2-3)Gal(b1-3)GlcNAc(b1-2)Man
# In short: as §1
# [9] = molecular target: Neu5Ac(a2-3)Gal(b1-3)GlcNAc(b1-2)Man(a1-3)[GlcNAc(b1-4)][Neu5Ac(a2-3)Gal(b1-3)GlcNAc(b1-2)Man(a1-6)]Man(b1-4)GlcNAc(b1-4)GlcNAc
# In short: as §1
# [10] = molecular target: Neu5Ac(a2-3)Gal(b1-3)GlcNAc(b1-2)Man(a1-3)[Neu5Ac(a2-3)Gal(b1-3)GlcNAc(b1-2)Man(a1-6)]Man(b1-4)GlcNAc(b1-4)GlcNAc
# In short: as §1
# [11] = molecular target: Neu5Ac(a2-3)Gal(b1-3)GlcNAc(b1-3)Gal(b1-3)GlcNAc
# In short: as §1
# [12] = molecular target: Neu5Ac(a2-3)Gal(b1-3)GlcNAc(b1-3)Gal(b1-4)GlcNAc
# In short: as §1
# [13] = molecular target: Neu5Ac(a2-3)Gal(b1-3)GlcNAc(b1-3)GalNAc
# In short: as §1
# [14] = molecular target: Neu5Ac(a2-3)Gal(b1-3)GlcNAc(b1-4)Gal(b1-4)Glc
# In short: as §1
# [15] = molecular target: Neu5Ac(a2-3)Gal(b1-3)GlcNAc(b1-6)GalNAc
# In short: as §1
# [16] = molecular target: Neu5Ac(a2-3)Gal(b1-3)GlcNAc6S
# In short: as §1
# [17] = molecular target: Neu5Ac(a2-3)Gal(b1-3)[Fuc(a1-4)]GlcNAc
# In short: as §1
# [18] = molecular target: Neu5Ac(a2-3)Gal(b1-3)[Fuc(a1-4)]GlcNAc(b1-3)Gal(b1-3)[Fuc(a1-4)]GlcNAc
# In short: as §1
# [19] = molecular target: Neu5Ac(a2-3)Gal(b1-3)[Fuc(a1-4)]GlcNAc(b1-3)Gal(b1-4)[Fuc(a1-3)]GlcNAc
# In short: as §1
# [20] = molecular target: Neu5Ac(a2-3)Gal(b1-3)[GlcNAc(b1-6)]GalNAc
# In short: as §1
# [21] = molecular target: Neu5Ac(a2-3)Gal(b1-3)[Neu5Ac(a2-3)Gal(b1-4)]GlcNAc
# In short: as §1
# [22] = molecular target: Neu5Ac(a2-3)Gal(b1-3)[Neu5Ac(a2-6)]GalNAc
# In short: as §1
# [23] = molecular target: Neu5Ac(a2-3)Gal(b1-3)[Neu5Ac(a2-6)]GlcNAc(b1-3)[Fuc(a1-3)[Gal(b1-4)]GlcNAc(b1-6)]Gal(b1-4)Glc
# In short: as §1
# [24] = molecular target: Neu5Ac(a2-3)Gal(b1-3)]Neu5Ac(a2-3)Gal(b1-4)]GlcNAc
# In short: as §1
# Neu5Ac(a2-3)Gal(b1-4)Glc = molecular target: Neu5Ac(a2-3)Gal(b1-4)Glc
# In short: as §1
# [25] = molecular target: Neu5Ac(a2-3)Gal(b1-4)GlcNAc
# In short: as §1
# [26] = molecular target: Neu5Ac(a2-3)Gal(b1-4)GlcNAc(b1-2)Man
# In short: as §1
# [27] = molecular target: Neu5Ac(a2-3)Gal(b1-4)GlcNAc(b1-2)Man(a1-3)[GlcNAc(b1-2)Man(b1-4)GlcNAc(b1-2)Man(a1-6)]Man(b1-4)GlcNAc(b1-4)GlcNAc
# In short: as §1
# [28] = molecular target: Neu5Ac(a2-3)Gal(b1-4)GlcNAc(b1-2)Man(a1-3)[GlcNAc(b1-4)][Neu5Ac(a2-3)Gal(b1-4)GlcNAc(b1-2)Man(a1-6)]Man(b1-4)GlcNAc(b1-4)GlcNAc
# In short: as §1
# [29] = molecular target: Neu5Ac(a2-3)Gal(b1-4)GlcNAc(b1-2)Man(a1-3)[Neu5Ac(a2-3)Gal(b1-4)GlcNAc(b1-2)Man(a1-6)]Man(b1-4)GlcNAc(b1-4)GlcNAc
# In short: as §1
# [30] = molecular target: Neu5Ac(a2-3)Gal(b1-4)GlcNAc(b1-2)Man(a1-3)[Neu5Ac(a2-3)Gal(b1-4)GlcNAc(b1-2)Man(a1-6)]Man(b1-4)GlcNAc(b1-4)[Fuc(a1-6)]GlcNAc
# In short: as §1
# [31] = molecular target: Neu5Ac(a2-3)Gal(b1-4)GlcNAc(b1-2)Man(a1-3)[Neu5Ac(a2-6)Gal(b1-4)GlcNAc(b1-2)Man(a1-6)]Man(b1-4)GlcNAc(b1-4)GlcNAc
# In short: as §1
# [32] = molecular target: Neu5Ac(a2-3)Gal(b1-4)GlcNAc(b1-2)[Neu5Ac(a2-3)Gal(b1-4)GlcNAc(b1-4)]Man(a1-3)[GlcNAc(b1-4)][Neu5Ac(a2-3)Gal(b1-4)GlcNAc(b1-2)[Neu5Ac(a2-3)Gal(b1-4)GlcNAc(b1-6)]Man(a1-6)]Man(b1-4)GlcNAc(b1-4)GlcNAc
# In short: as §1
# [33] = molecular target: Neu5Ac(a2-3)Gal(b1-4)GlcNAc(b1-2)[Neu5Ac(a2-3)Gal(b1-4)GlcNAc(b1-4)]Man(a1-3)[GlcNAc(b1-4)][Neu5Ac(a2-3)Gal(b1-4)GlcNAc(b1-4)Man(a1-6)]Man(b1-4)GlcNAc(b1-4)GlcNAc
# In short: as §1
# [34] = molecular target: Neu5Ac(a2-3)Gal(b1-4)GlcNAc(b1-2)[Neu5Ac(a2-3)Gal(b1-4)GlcNAc(b1-6)]Man(a1-6)[Neu5Ac(a2-3)Gal(b1-4)GlcNAc(b1-2)Man(a1-3)]Man(b1-4)GlcNAc(b1-4)GlcNAc
# In short: as §1
# [35] = molecular target: Neu5Ac(a2-3)Gal(b1-4)GlcNAc(b1-2)[Neu5Ac(a2-3)Gal(b1-4)GlcNAc(b1-6)]Man(a1-6)[Neu5Ac(a2-3)Gal(b1-4)GlcNAc(b1-2)Man(a1-3)][GlcNAc(b1-4)]Man(b1-4)GlcNAc(b1-4)GlcNAc
# In short: as §1
# [36] = molecular target: Neu5Ac(a2-3)Gal(b1-4)GlcNAc(b1-3)Gal
# In short: as §1
# [37] = molecular target: Neu5Ac(a2-3)Gal(b1-4)GlcNAc(b1-3)Gal(b1-3)GlcNAc
# In short: as §1
# [38] = molecular target: Neu5Ac(a2-3)Gal(b1-4)GlcNAc(b1-3)Gal(b1-4)GlcNAc
# In short: as §1
# [39] = molecular target: Neu5Ac(a2-3)Gal(b1-4)GlcNAc(b1-3)Gal(b1-4)GlcNAc(b1-2)Man(a1-3)[Neu5Ac(a2-3)Gal(b1-4)GlcNAc(b1-3)Gal(b1-4)GlcNAc(b1-2)Man(a1-6)]Man(b1-4)GlcNAc(b1-4)GlcNAc
# In short: as §1
# [40] = molecular target: Neu5Ac(a2-3)Gal(b1-4)GlcNAc(b1-3)Gal(b1-4)GlcNAc(b1-3)Gal(b1-4)GlcNAc
# In short: as §1
# [41] = molecular target: Neu5Ac(a2-3)Gal(b1-4)GlcNAc(b1-3)Gal(b1-4)GlcNAc(b1-3)Gal(b1-4)GlcNAc(b1-2)Man(a1-3)[Neu5Ac(a2-3)Gal(b1-4)GlcNAc(b1-3)Gal(b1-4)GlcNAc(b1-3)Gal(b1-4)GlcNAc(b1-2)Man(a1-6)]GalNAc
# In short: as §1
binder,measurement,setting,value
B1,glycan array binding signal (z-score),Man(b1-4)GlcNAc,-0.273
same,glycan array binding signal (z-score),MurNAc(b1-4)GlcNAc,-0.151
same,glycan array binding signal (z-score),Neu5Ac(a2-3)Gal,-0.242
same,glycan array binding signal (z-score),[1],-0.217
same,glycan array binding signal (z-score),[2],-0.225
same,glycan array binding signal (z-score),[3],-0.256
same,glycan array binding signal (z-score),[4],-0.192
same,glycan array binding signal (z-score),[5],-0.091
same,glycan array binding signal (z-score),[6],-0.259
same,glycan array binding signal (z-score),[7],-0.278
same,glycan array binding signal (z-score),[8],0.401
same,glycan array binding signal (z-score),[9],-0.236
same,glycan array binding signal (z-score),[10],-0.206
same,glycan array binding signal (z-score),[11],-0.214
same,glycan array binding signal (z-score),[12],-0.057
same,glycan array binding signal (z-score),[13],-0.095
same,glycan array binding signal (z-score),[14],-0.212
same,glycan array binding signal (z-score),[15],-0.136
same,glycan array binding signal (z-score),[16],-0.038
same,glycan array binding signal (z-score),[17],-0.214
same,glycan array binding signal (z-score),[18],0.004
same,glycan array binding signal (z-score),[19],-0.172
same,glycan array binding signal (z-score),[20],0.031
same,glycan array binding signal (z-score),[21],-0.278
same,glycan array binding signal (z-score),[22],-0.207
same,glycan array binding signal (z-score),[23],-0.247
same,glycan array binding signal (z-score),[24],0.15
same,glycan array binding signal (z-score),Neu5Ac(a2-3)Gal(b1-4)Glc,-0.242
same,glycan array binding signal (z-score),[25],-0.255
same,glycan array binding signal (z-score),[26],-0.036
same,glycan array binding signal (z-score),[27],-0.245
same,glycan array binding signal (z-score),[28],-0.117
same,glycan array binding signal (z-score),[29],-0.314
same,glycan array binding signal (z-score),[30],-0.158
same,glycan array binding signal (z-score),[31],-0.223
same,glycan array binding signal (z-score),[32],-0.14
same,glycan array binding signal (z-score),[33],0.051
same,glycan array binding signal (z-score),[34],-0.05
same,glycan array binding signal (z-score),[35],-0.178
same,glycan array binding signal (z-score),[36],-0.172
same,glycan array binding signal (z-score),[37],-0.23
same,glycan array binding signal (z-score),[38],-0.292
same,glycan array binding signal (z-score),[39],-0.244
same,glycan array binding signal (z-score),[40],-0.287
same,glycan array binding signal (z-score),[41],0.02
